# According to the supplement of paper PMC8728848:
# Some of the results follow.
# B1: DrGRIFIN (Danio rerio), Q6DGJ1 (protein)
# chain: MTLRFEASCPDGLCPGWSVILKGETPPEASKFEINFLCDRDDRVAFHFNPRFTESDIICNSYMANRWGQEERCNHFPLGVEEPFQIEIYSDNDHFHVYIDKAKVMQYKHRVEDLKTITKLQVVNDVKISSLEITKKLFY
# Legend:
# Assay in all cases: glycan array binding signal (z-score within array); higher = stronger binding
# Settings in all cases: glycan notation: IUPAC condensed, linker removed
# [1] = target: Gal(b1-4)GlcNAc(b1-3)Gal(b1-4)GlcNAc(b1-2)[Gal(b1-4)GlcNAc(b1-3)Gal(b1-4)GlcNAc(b1-6)]Man(a1-6)[Gal(b1-4)GlcNAc(b1-3)Gal(b1-4)GlcNAc(b1-2)Man(a1-3)]Man(b1-4)GlcNAc(b1-4)GlcNAc
# Method in brief: (§1)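 Glycan array data came from 3228 arrays in the Consortium for Functional Glycomics database, and only arrays with an available protein sequence were kept. Glycan names were put into IUPAC-condensed notation, and columns mapping to the same glycan were averaged. The binding signal is a within-array Z-score, averaged across arrays of one protein sequence run at different concentrations or buffers and across linkers. A negative Z-score can be read as non-binding.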
# [2] = target: Gal(b1-4)GlcNAc(b1-3)Gal(b1-4)GlcNAc(b1-2)[Gal(b1-4)GlcNAc(b1-3)Gal(b1-4)GlcNAc(b1-6)]Man(a1-6)[Gal(b1-4)GlcNAc(b1-3)Gal(b1-4)GlcNAc(b1-2)Man(a1-3)]Man(b1-4)GlcNAc(b1-4)[Fuc(a1-6)]GlcNAc
# Method in brief: as §1
# [3] = target: Gal(b1-4)GlcNAc(b1-3)Gal(b1-4)GlcNAc(b1-3)Gal(b1-4)GlcNAc
# Method in brief: as §1
# [4] = target: Gal(b1-4)GlcNAc(b1-3)Gal(b1-4)GlcNAc(b1-3)Gal(b1-4)GlcNAc(b1-2)Man(a1-3)[Gal(b1-4)GlcNAc(b1-3)Gal(b1-4)GlcNAc(b1-3)Gal(b1-4)GlcNAc(b1-2)Man(a1-6)]Man(b1-4)GlcNAc(b1-4)GlcNAc
# Method in brief: as §1
# [5] = target: Gal(b1-4)GlcNAc(b1-3)Gal(b1-4)GlcNAc(b1-3)Gal(b1-4)GlcNAc(b1-2)Man(a1-3)[Gal(b1-4)GlcNAc(b1-3)Gal(b1-4)GlcNAc(b1-3)Gal(b1-4)GlcNAc(b1-2)Man(a1-6)]Man(b1-4)GlcNAc(b1-4)[Fuc(a1-6)]GlcNAc
# Method in brief: as §1
# [6] = target: Gal(b1-4)GlcNAc(b1-3)Gal(b1-4)GlcNAc(b1-3)Gal(b1-4)GlcNAc(b1-2)[Gal(b1-4)GlcNAc(b1-3)Gal(b1-4)GlcNAc(b1-3)Gal(b1-4)GlcNAc(b1-6)]Man(a1-6)[Gal(b1-4)GlcNAc(b1-3)Gal(b1-4)GlcNAc(b1-3)Gal(b1-4)GlcNAc(b1-2)Man(a1-3)]Man(b1-4)GlcNAc(b1-4)[Fuc(a1-6)]GlcNAc
# Method in brief: as §1
# [7] = target: Gal(b1-4)GlcNAc(b1-3)Gal(b1-4)GlcNAc(b1-3)Gal(b1-4)GlcNAc(b1-3)Gal(b1-4)GlcNAc(b1-2)Man(a1-3)[Gal(b1-4)GlcNAc(b1-3)Gal(b1-4)GlcNAc(b1-3)Gal(b1-4)GlcNAc(b1-3)Gal(b1-4)GlcNAc(b1-2)Man(a1-6)]Man(b1-4)GlcNAc(b1-4)GlcNAc
# Method in brief: as §1
# [8] = target: Gal(b1-4)GlcNAc(b1-3)Gal(b1-4)GlcNAc(b1-3)Gal(b1-4)GlcNAc(b1-3)Gal(b1-4)GlcNAc(b1-2)Man(a1-3)[Gal(b1-4)GlcNAc(b1-3)Gal(b1-4)GlcNAc(b1-3)Gal(b1-4)GlcNAc(b1-3)Gal(b1-4)GlcNAc(b1-2)Man(a1-6)]Man(b1-4)GlcNAc(b1-4)[Fuc(a1-6)]GlcNAc
# Method in brief: as §1
# [9] = target: Gal(b1-4)GlcNAc(b1-3)Gal(b1-4)GlcNAc(b1-3)Gal(b1-4)GlcNAc(b1-3)Gal(b1-4)GlcNAc(b1-2)[Gal(b1-4)GlcNAc(b1-3)Gal(b1-4)GlcNAc(b1-3)Gal(b1-4)GlcNAc(b1-3)Gal(b1-4)GlcNAc(b1-6)]Man(a1-6)[Gal(b1-4)GlcNAc(b1-3)Gal(b1-4)GlcNAc(b1-3)Gal(b1-4)GlcNAc(b1-3)Gal(b1-4)GlcNAc(b1-2)Man(a1-3)]Man(b1-4)GlcNAc(b1-4)[Fuc(a1-6)]GlcNAc
# Method in brief: as §1
# [10] = target: Gal(b1-4)GlcNAc(b1-3)Gal(b1-4)GlcNAc(b1-3)Gal(b1-4)GlcNAc(b1-3)Gal(b1-4)GlcNAc(b1-3)Gal(b1-4)GlcNAc(b1-2)Man(a1-3)[Gal(b1-4)GlcNAc(b1-3)Gal(b1-4)GlcNAc(b1-3)Gal(b1-4)GlcNAc(b1-3)Gal(b1-4)GlcNAc(b1-3)Gal(b1-4)GlcNAc(b1-2)Man(a1-6)]Man(b1-4)GlcNAc(b1-4)GlcNAc
# Method in brief: as §1
# [11] = target: Gal(b1-4)GlcNAc(b1-3)Gal(b1-4)GlcNAc(b1-3)Gal(b1-4)GlcNAc(b1-3)Gal(b1-4)GlcNAc(b1-3)Gal(b1-4)GlcNAc(b1-2)Man(a1-3)[Gal(b1-4)GlcNAc(b1-3)Gal(b1-4)GlcNAc(b1-3)Gal(b1-4)GlcNAc(b1-3)Gal(b1-4)GlcNAc(b1-3)Gal(b1-4)GlcNAc(b1-2)Man(a1-6)]Man(b1-4)GlcNAc(b1-4)[Fuc(a1-6)]GlcNAc
# Method in brief: as §1
# [12] = target: Gal(b1-4)GlcNAc(b1-3)Gal(b1-4)GlcNAc(b1-3)Gal(b1-4)GlcNAc(b1-3)Gal(b1-4)GlcNAc(b1-3)Gal(b1-4)GlcNAc(b1-2)[Gal(b1-4)GlcNAc(b1-3)Gal(b1-4)GlcNAc(b1-3)Gal(b1-4)GlcNAc(b1-3)Gal(b1-4)GlcNAc(b1-3)Gal(b1-4)GlcNAc(b1-6)]Man(a1-6)[Gal(b1-4)GlcNAc(b1-3)Gal(b1-4)GlcNAc(b1-3)Gal(b1-4)GlcNAc(b1-3)Gal(b1-4)GlcNAc(b1-3)Gal(b1-4)GlcNAc(b1-2)Man(a1-3)]Man(b1-4)GlcNAc(b1-4)[Fuc(a1-6)]GlcNAc
# Method in brief: as §1
# [13] = target: Gal(b1-4)GlcNAc(b1-3)Gal(b1-4)GlcNAc(b1-3)Gal(b1-4)GlcNAc(b1-3)Gal(b1-4)GlcNAc(b1-3)Gal(b1-4)GlcNAc(b1-3)Gal(b1-4)GlcNAc(b1-2)Man(a1-3)[Gal(b1-4)GlcNAc(b1-3)Gal(b1-4)GlcNAc(b1-3)Gal(b1-4)GlcNAc(b1-3)Gal(b1-4)GlcNAc(b1-3)Gal(b1-4)GlcNAc(b1-3)Gal(b1-4)GlcNAc(b1-2)Man(a1-6)]Man(b1-4)GlcNAc(b1-4)GlcNAc
# Method in brief: as §1
# [14] = target: Gal(b1-4)GlcNAc(b1-3)Gal(b1-4)GlcNAc(b1-3)GalNAc
# Method in brief: as §1
# [15] = target: Gal(b1-4)GlcNAc(b1-3)Gal(b1-4)GlcNAc(b1-3)[Gal(b1-4)GlcNAc(b1-3)Gal(b1-4)GlcNAc(b1-6)]GalNAc
# Method in brief: as §1
# [16] = target: Gal(b1-4)GlcNAc(b1-3)Gal(b1-4)GlcNAc(b1-6)[Gal(b1-3)]GalNAc
# Method in brief: as §1
# [17] = target: Gal(b1-4)GlcNAc(b1-3)Gal(b1-4)[Fuc(a1-3)]GlcNAc(b1-3)Gal(b1-4)[Fuc(a1-3)]GlcNAc
# Method in brief: as §1
# [18] = target: Gal(b1-4)GlcNAc(b1-3)GalNAc
# Method in brief: as §1
# [19] = target: Gal(b1-4)GlcNAc(b1-3)[Fuc(a1-3)GlcNAc(b1-6)]Gal(b1-4)Glc
# Method in brief: as §1
# [20] = target: Gal(b1-4)GlcNAc(b1-3)[Gal(b1-4)GlcNAc(b1-6)]Gal(b1-4)GlcNAc
# Method in brief: as §1
# [21] = target: Gal(b1-4)GlcNAc(b1-3)[GlcNAc(b1-6)]Gal(b1-4)GlcNAc
# Method in brief: as §1
# [22] = target: Gal(b1-4)GlcNAc(b1-6)Gal(b1-4)GlcNAc
# Method in brief: as §1
# [23] = target: Gal(b1-4)GlcNAc(b1-6)GalNAc
# Method in brief: as §1
# [24] = target: Gal(b1-4)GlcNAc(b1-6)[Gal(b1-3)]GalNAc
# Method in brief: as §1
# [25] = target: Gal(b1-4)GlcNAc(b1-6)[Gal(b1-4)GlcNAc(b1-3)]GalNAc
# Method in brief: as §1
# Gal(b1-4)GlcNAc6P = target: Gal(b1-4)GlcNAc6P
# Method in brief: as §1
# Gal(b1-6)Gal = target: Gal(b1-6)Gal
# Method in brief: as §1
# Gal3S(b1-3)GalNAc = target: Gal3S(b1-3)GalNAc
# Method in brief: as §1
# Gal3S(b1-3)GlcNAc = target: Gal3S(b1-3)GlcNAc
# Method in brief: as §1
# [26] = target: Gal3S(b1-3)[Fuc(a1-4)]GlcNAc
# Method in brief: as §1
# Gal3S(b1-4)Glc = target: Gal3S(b1-4)Glc
# Method in brief: as §1
# Gal3S(b1-4)Glc6S = target: Gal3S(b1-4)Glc6S
# Method in brief: as §1
# Gal3S(b1-4)GlcNAc = target: Gal3S(b1-4)GlcNAc
# Method in brief: as §1
# [27] = target: Gal3S(b1-4)[Fuc(a1-3)]Glc6S
# Method in brief: as §1
# [28] = target: Gal3S(b1-4)[Fuc(a1-3)]GlcNAc
# Method in brief: as §1
# [29] = target: Gal3S(b1-4)[Fuc(a1-3)]GlcNAc6S
# Method in brief: as §1
# Gal3S4S(b1-4)GlcNAc = target: Gal3S4S(b1-4)GlcNAc
# Method in brief: as §1
# Gal3S6S(b1-4)GlcNAc = target: Gal3S6S(b1-4)GlcNAc
# Method in brief: as §1
# Gal3S6S(b1-4)GlcNAc6S = target: Gal3S6S(b1-4)GlcNAc6S
# Method in brief: as §1
# Gal4S(b1-4)GlcNAc = target: Gal4S(b1-4)GlcNAc
# Method in brief: as §1
# Gal4S6S(b1-4)GlcNAc = target: Gal4S6S(b1-4)GlcNAc
# Method in brief: as §1
# Gal6P(b1-4)GlcNAc = target: Gal6P(b1-4)GlcNAc
# Method in brief: as §1
# Gal6S(b1-3)GlcNAc = target: Gal6S(b1-3)GlcNAc
# Method in brief: as §1
# Gal6S(b1-3)GlcNAc6S = target: Gal6S(b1-3)GlcNAc6S
# Method in brief: as §1
# Gal6S(b1-4)Glc = target: Gal6S(b1-4)Glc
# Method in brief: as §1
binder,measurement,setting,value
B1,glycan array binding signal (z-score),[1],-0.039
same,glycan array binding signal (z-score),[2],-0.185
same,glycan array binding signal (z-score),[3],-0.163
same,glycan array binding signal (z-score),[4],-0.089
same,glycan array binding signal (z-score),[5],-0.163
same,glycan array binding signal (z-score),[6],-0.101
same,glycan array binding signal (z-score),[7],-0.166
same,glycan array binding signal (z-score),[8],-0.125
same,glycan array binding signal (z-score),[9],-0.177
same,glycan array binding signal (z-score),[10],-0.125
same,glycan array binding signal (z-score),[11],-0.054
same,glycan array binding signal (z-score),[12],-0.151
same,glycan array binding signal (z-score),[13],-0.156
same,glycan array binding signal (z-score),[14],-0.154
same,glycan array binding signal (z-score),[15],-0.074
same,glycan array binding signal (z-score),[16],-0.176
same,glycan array binding signal (z-score),[17],-0.179
same,glycan array binding signal (z-score),[18],-0.164
same,glycan array binding signal (z-score),[19],-0.215
same,glycan array binding signal (z-score),[20],-0.124
same,glycan array binding signal (z-score),[21],-0.153
same,glycan array binding signal (z-score),[22],-0.225
same,glycan array binding signal (z-score),[23],-0.141
same,glycan array binding signal (z-score),[24],-0.203
same,glycan array binding signal (z-score),[25],-0.173
same,glycan array binding signal (z-score),Gal(b1-4)GlcNAc6P,-0.174
same,glycan array binding signal (z-score),Gal(b1-6)Gal,-0.101
same,glycan array binding signal (z-score),Gal3S(b1-3)GalNAc,-0.161
same,glycan array binding signal (z-score),Gal3S(b1-3)GlcNAc,-0.181
same,glycan array binding signal (z-score),[26],-0.169
same,glycan array binding signal (z-score),Gal3S(b1-4)Glc,-0.182
same,glycan array binding signal (z-score),Gal3S(b1-4)Glc6S,-0.179
same,glycan array binding signal (z-score),Gal3S(b1-4)GlcNAc,-0.147
same,glycan array binding signal (z-score),[27],-0.151
same,glycan array binding signal (z-score),[28],-0.092
same,glycan array binding signal (z-score),[29],-0.16
same,glycan array binding signal (z-score),Gal3S4S(b1-4)GlcNAc,-0.193
same,glycan array binding signal (z-score),Gal3S6S(b1-4)GlcNAc,-0.193
same,glycan array binding signal (z-score),Gal3S6S(b1-4)GlcNAc6S,-0.097
same,glycan array binding signal (z-score),Gal4S(b1-4)GlcNAc,-0.226
same,glycan array binding signal (z-score),Gal4S6S(b1-4)GlcNAc,-0.167
same,glycan array binding signal (z-score),Gal6P(b1-4)GlcNAc,-0.218
same,glycan array binding signal (z-score),Gal6S(b1-3)GlcNAc,-0.095
same,glycan array binding signal (z-score),Gal6S(b1-3)GlcNAc6S,-0.151
same,glycan array binding signal (z-score),Gal6S(b1-4)Glc,-0.18
